For test [1], the target named is T1, Mitsugumin 53 (MG53), endogenous, mouse skeletal muscle (mouse (endogenous in skeletal muscle)) (UniProt Q1XH17).
T1 sequence: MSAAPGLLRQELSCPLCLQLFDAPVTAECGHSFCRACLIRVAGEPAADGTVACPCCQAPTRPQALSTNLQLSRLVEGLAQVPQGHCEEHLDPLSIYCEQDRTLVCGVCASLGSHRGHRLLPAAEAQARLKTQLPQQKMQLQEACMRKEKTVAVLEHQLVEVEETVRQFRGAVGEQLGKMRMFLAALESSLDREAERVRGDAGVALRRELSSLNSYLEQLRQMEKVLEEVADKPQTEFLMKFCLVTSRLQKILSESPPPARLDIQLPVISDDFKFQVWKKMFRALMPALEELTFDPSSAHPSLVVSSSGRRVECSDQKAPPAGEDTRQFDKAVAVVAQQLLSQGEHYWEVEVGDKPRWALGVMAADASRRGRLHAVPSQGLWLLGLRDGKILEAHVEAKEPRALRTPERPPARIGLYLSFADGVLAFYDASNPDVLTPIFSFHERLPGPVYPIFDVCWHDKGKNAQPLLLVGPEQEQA
Kind of test: co-IP; mouse gastrocnemius muscle lysate, 20 mM Tris-HCl pH 7.5, 150 mM NaCl, 1% NP-40, without EGTA or CaCl2; IP with polyclonal anti-MG53 or anti-dysferlin, immunoblot.

Test [2] concerns the target T2, FLAG-tagged full-length human MG53 (human) (UniProt Q6ZMU5).
T2 sequence: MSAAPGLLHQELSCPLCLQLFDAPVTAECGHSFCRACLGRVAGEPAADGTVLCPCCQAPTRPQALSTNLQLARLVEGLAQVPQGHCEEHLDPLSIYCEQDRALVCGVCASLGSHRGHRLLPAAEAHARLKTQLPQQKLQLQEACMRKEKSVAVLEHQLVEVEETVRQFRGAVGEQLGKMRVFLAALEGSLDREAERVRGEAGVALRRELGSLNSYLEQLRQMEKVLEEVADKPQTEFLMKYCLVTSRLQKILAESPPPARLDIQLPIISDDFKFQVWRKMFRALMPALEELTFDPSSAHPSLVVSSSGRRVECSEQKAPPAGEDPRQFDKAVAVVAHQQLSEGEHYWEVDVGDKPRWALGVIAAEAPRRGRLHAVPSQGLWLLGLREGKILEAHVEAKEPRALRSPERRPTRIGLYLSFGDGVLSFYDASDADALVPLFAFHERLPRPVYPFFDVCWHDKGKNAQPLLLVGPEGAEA
The test can be described thus: co-IP; COS-7 cells co-transfected with FLAG-MG53 and c-myc-dysferlin constructs, lysed 48 h later in 20 mM Tris-HCl pH 7.5, 150 mM NaCl, 1% NP-40 without CaCl2 and EGTA; IP with anti-FLAG (M2) or anti-c-myc (9E10), immunoblot. For orientation: In western blotting, separated proteins are transferred to a membrane and probed.

Test [3] has as its target T2, FLAG-tagged full-length human MG53 (human). Kind of test: co-IP; extracts from co-transfected COS-7 cells, in the absence of EGTA or Ca2+; missense mutants of dysferlin; data not shown.
For test [4], the target named is dysferlin, endogenous, mouse skeletal muscle (mouse (endogenous in skeletal muscle)) (UniProt Q9ESD7). Kind of test: co-IP; mouse gastrocnemius muscle lysate, same buffer supplemented with 1 mM CaCl2.
Test [5] has the same target. The test can be described thus: co-IP; mouse gastrocnemius muscle lysate, 20 mM Tris-HCl pH 7.5, 150 mM NaCl, 1% NP-40, without EGTA or CaCl2; IP with polyclonal anti-MG53 or anti-dysferlin, immunoblot.
For test [6] the target is unchanged. The test can be described thus: co-IP; mouse gastrocnemius muscle lysate, same buffer supplemented with 2 mM EGTA.
Test [7] addresses dysferlin, endogenous, C2C12 myotubes (mouse (endogenous in C2C12)) (UniProt Q9ESD7). The test can be described thus: co-IP; C2C12 myotubes, without EGTA or CaCl2; data not shown.
Test [8] deals with T2, FLAG-tagged full-length human MG53 (human). The test can be described thus: co-IP; COS-7 cells co-transfected with FLAG-MG53 and c-myc-dysferlin constructs, lysed 48 h later in 20 mM Tris-HCl pH 7.5, 150 mM NaCl, 1% NP-40 without CaCl2 and EGTA; IP with anti-FLAG (M2) or anti-c-myc (9E10), immunoblot. This is another data set of the same source.

These are yes or no findings as the source states them, for the method shown. Binding seen in cells or lysates may run through a third protein. Some binding calls cover weakened binding; strength is not graded here. For part of these data: Where a sequence is shown, tags or fusion partners need not be part of it.

As for “dysferlin, endogenous, mouse skeletal muscle (from UniProt Q9ESD7 1-2090)”, the binding result in test [1] is given as “binds”.

Consider “c-myc-tagged full-length human dysferlin (from UniProt O75923 1-2080)”, for which the binding entry in test [2] is given as “binds”.

“c-myc-tagged human dysferlin deletion mutant aa 130-2080 (without the C2A domain) (from UniProt O75923 130-2080) (domain or fragment)”: the binding result in test [2] is recorded as “no binding”.

Regarding “full-length dysferlin with the W999C missense mutation (from UniProt O75923 1-2080)”, the binding entry in test [3] is “binds”.

B1: Mitsugumin 53 (MG53), endogenous, mouse skeletal muscle (protein, UniProt Q1XH17 1-477)
chain: T1 sequence
B1: the binding entry in test [4] is “no binding (condition: with 1 mM CaCl2)”; in test [5], “binds”; in test [6], “no binding (condition: with 2 mM EGTA)”.

B2: MG53, endogenous, C2C12 myotubes (protein, UniProt Q1XH17 1-477)
chain: T1 sequence
Turning to B2, the binding result in test [7] is listed as “binds”.

B3: c-myc-tagged human dysferlin deletion mutant aa 1081-2080 (without the C2A domain) (domain or fragment, UniProt O75923 1081-2080)
chain: LEYRKTDAFRRRRWRRRMEPLEKTGPAAVFALEGALGGVMDDKSEDSMSVSTLSFGVNRPTISCIFDYGNRYHLRCYMYQARDLAAMDKDSFSDPYAIVSFLHQSQKTVVVKNTLNPTWDQTLIFYEIEIFGEPATVAEQPPSIVVELYDHDTYGADEFMGRCICQPSLERMPRLAWFPLTRGSQPSGELLASFELIQREKPAIHHIPGFEVQETSRILDESEDTDLPYPPPQREANIYMVPQNIKPALQRTAIEILAWGLRNMKSYQLANISSPSLVVECGGQTVQSCVIRNLRKNPNFDICTLFMEVMLPREELYCPPITVKVIDNRQFGRRPVVGQCTIRSLESFLCDPYSAESPSPQGGPDDVSLLSPGEDVLIDIDDKEPLIPIQEEEFIDWWSKFFASIGEREKCGSYLEKDFDTLKVYDTQLENVEAFEGLSDFCNTFKLYRGKTQEETEDPSVIGEFKGLFKIYPLPEDPAIPMPPRQFHQLAAQGPQECLVRIYIVRAFGLQPKDPNGKCDPYIKISIGKKSVSDQDNYIPCTLEPVFGKMFELTCTLPLEKDLKITLYDYDLLSKDEKIGETVVDLENRLLSKFGARCGLPQTYCVSGPNQWRDQLRPSQLLHLFCQQHRVKAPVYRTDRVMFQDKEYSIEEIEAGRIPNPHLGPVEERLALHVLQQQGLVPEHVESRPLYSPLQPDIEQGKLQMWVDLFPKALGRPGPPFNITPRRARRFFLRCIIWNTRDVILDDLSLTGEKMSDIYVKGWMIGFEEHKQKTDVHYRSLGGEGNFNWRFIFPFDYLPAEQVCTIAKKDAFWRLDKTESKIPARVVFQIWDNDKFSFDDFLGSLQLDLNRMPKPAKTAKKCSLDQLDDAFHPEWFVSLFEQKTVKGWWPCVAEEGEKKILAGKLEMTLEIVAESEHEERPAGQGRDEPNMNPKLEDPRRPDTSFLWFTSPYKTMKFILWRRFRWAIILFIILFILLLFLAIFIYAFPNYAAMKLVKPFS
As to B3, the binding result in test [8] is listed as “no binding”.

The values are drawn from publication PMC3493068.
